Results taken from PubChem BioAssay AID686979 (National Center for Advancing Translational Sciences (NCATS), 2013).
Screen size: about 420,000 compounds; about 50,000 (12%) were called active. Inconclusive means that the source gave no clear call. Such entries were picked first, then a sample of the others. The call rests on the fitted dose curve; in most records, active means well fitted inhibition curve with a large enough effect; inconclusive means small, poorly fitted or top-dose-only effect; inactive means flat fitted curve, though single readings scatter. No potency is given beside an inconclusive call; the fits are too rough.

Assay: qHTS for Inhibitors of human tyrosyl-DNA phosphodiesterase 1 (TDP1): qHTS in cells in presence of CPT; further: nearly all actives have a fitted effect of over 55% in size
Settings: chicken DT40 Tdp1-/-;hTDP1 cells + 20 nM CPT, ATP luminescence, 48 h; activity change, negative = growth inhibition: at 46.2 µM (top of the series)
In short: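 Cell growth measured by CellTiter-Glo luminescence after a minimum 48 h, 37 C compound exposure with 20 nM CPT in Tdp1-knockout DT40 cells stably expressing hTDP1, seeded 400/well; qHTS titration format.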
On the % scale 0 is the no-effect control and ±100 the full control effect; potency means the concentration at half of the fitted maximal effect; tags describe the fitted curve by direction and shape.

SMILES	Potency	activity change, negative = growth inhibition
Cc1cc(C(=O)CSc2nc3ccccc3[nH]2)c(C)n1C	inconclusive [inhibitor, partial curve]	
Cc1ccc(NC(=O)c2ccccc2-c2ccc(C(F)(F)F)cc2)cc1S(=O)(=O)N1CCOCC1	inconclusive [inhibitor, single point]	
COc1ccc(N2CCN(C(=O)CCC(=O)NNc3nc4ccccc4c4nc(C)nn34)CC2)cc1	inconclusive [inhibitor, single point]	
O=C(/C=C/c1cn(CC(O)CN2CCCCCC2)c2ccccc12)c1cccs1 (stereo not given)	inconclusive [inhibitor, single point]	
N=c1n(CCN2CCCCC2)c2ccccc2n1CC(O)COc1ccccc1 (stereo not given)	active: 18.4 µM	
COCCNC(=O)c1c(CSc2ccc(Cl)cc2)noc1C(=O)NCc1ccccc1	inconclusive [inhibitor, single point]	
CN(c1ccccc1)S(=O)(=O)c1ccc(Cl)c(C(=O)Nc2ccc(N3CCOCC3)cc2)c1	active: 3.26 µM	
O=C(NCc1ccccc1)C(CCc1ccccc1)n1c(=O)c(-c2cc3ccccc3[nH]2)nc2ccccc21 (stereo not given)	active: 13 µM	
CCN1CCN(CCNC(=O)C2CCCN(Cc3nc(-c4cccc(Cl)c4)oc3C)C2)CC1 (stereo not given)	active: 20.6 µM	
C/C(=N/Nc1ncc(Br)cn1)c1ccc(Br)cc1	inconclusive [inhibitor, single point]	
O=C1CN(C(=O)c2ccc(Br)o2)C(c2ccccc2)c2cc(Cl)ccc2N1 (stereo not given)	active: 14.6 µM	
O=C(COC(=O)c1ccccc1C(=O)OCC(=O)NCCc1c[nH]c2ccccc12)NCCc1c[nH]c2ccccc12	inconclusive [inhibitor, single point]	
CC(=O)Nc1ccc(S(=O)(=O)N2CCN(c3nc(C)cc(C)n3)CC2)cc1		inactive: -18.8%
CSc1ccc(-c2nc3c(C)cccn3c2Nc2ccc3c(c2)OCCO3)cc1	inconclusive [inhibitor, single point]	
COc1cc(CN(C)C(C)C(=O)Nc2ccc([N+](=O)[O-])cc2Cl)ccc1OC(F)F (stereo not given)	inconclusive [inhibitor, single point]	
CCc1ccc(-c2cc(C)no2)cc1S(=O)(=O)N1CCN(c2ccc(F)cc2)CC1	inconclusive [inhibitor, single point]	
CCc1nc(CN2CCN(c3cc(C(F)(F)F)ccn3)CC2)c(C)[nH]1	active: 23.1 µM	
NC(=S)Nc1ncc(C(F)(F)F)cc1Cl		inactive: 22.1%
COc1cc(OC)c(NC(=O)Cn2c(=O)cc(C)c3c(C)nn(-c4ccc(C)cc4)c32)cc1Cl	inconclusive [inhibitor, full curve, poor fit]	
CCc1ccc(NC(=O)c2ccc3nc(C(C)C)oc3c2)cc1	inconclusive [inhibitor, single point]	
CCCc1cc(C(=O)OC)c2ccccc2n1		inactive: -22.9%
COC(=O)COc1ccc(S(=O)(=O)Nc2ccc(C(N)=O)cc2)cc1C		inconclusive: -34% [inhibitor]
O=C1CC2(CCN(C(=O)c3cccc([N+](=O)[O-])c3)CC2)Oc2ccccc21	inconclusive [inhibitor, partial curve]	
CC(C)C(=O)N1CCC1(C)C(=O)NCc1ccc(F)cc1Cl (stereo not given)	inconclusive [inhibitor, single point]	

SMILES	Potency	activity change, negative = growth inhibition
COc1cc(NC2=Nc3cccc4cccc2c34)cc(OC)c1OC	inconclusive [inhibitor, partial curve, poor fit]	
CCNC(=O)c1ccc(CSc2nc3cccnc3n2Cc2ccc(OC)cc2)cc1	inconclusive [inhibitor, single point]	
CCN(CC)C(=O)CN1C(=O)c2cccc3cccc(c23)C1=O		inactive: 8.28%
COC(=O)[C@@]12C[C@@H](CC(=O)NCCc3ccccc3OC)C(=O)N(Cc3ccc4c(c3)OCO4)C1=CCC(C)(C)C2	inconclusive [inhibitor, partial curve, poor fit]	
COC(=O)Cn1c(CN2CCC(Cc3ccccc3)CC2)nc2c1c(=O)n(C)c(=O)n2C		inactive: -23.6%
Cn1cc(S(=O)(=O)N2CCCC2)cc1C(=O)NCc1ccccc1Cl	active: 16.4 µM	
O=C(Nc1ccc(-c2csnn2)cc1)C(Cl)(Cl)Cl	active: 16.4 µM	
COc1ccc(NC(=O)Nc2cc(C)ccc2F)cc1		inactive: 2.99%
COc1ccc(N(C(=O)c2snc(C(N)=O)c2N)C(CC(C)C)C(=O)NCC2CCCO2)cc1 (stereo not given)		inactive: 2%
Cc1cccc(CCNC(=O)C2CCCN(c3ncnc4c3nc3n4CCCCC3)C2)c1 (stereo not given)		inactive: -17.5%
O=c1cc(-c2ccco2)oc2ccccc12	inconclusive [inhibitor, single point]	
Cc1ccc(S(=O)(=O)N2CCCC(C(=O)NCC3COCCO3)C2)cc1 (stereo not given)		inactive: -1.5%
CCN(C(=O)c1ccccc1F)c1nc(-c2ccc(OC)cc2)cs1	active: 20.6 µM	
CC1=C(C(=O)N2CCCC(C(=O)c3cccc4ccccc34)C2)OCCO1 (stereo not given)	inconclusive [inhibitor, single point]	
CCOc1cc(S(=O)(=O)N2CCCC2)ccc1Cl	inconclusive [inhibitor, single point]	
COc1cc(-c2ccc3oc(-c4ccsc4)cc3c2)cc(OC)c1OC	inconclusive [inhibitor, partial curve]	
CSc1ncccc1C(=O)OCC(=O)NC1CC1		inactive: -0.314%
CN(C)c1cccc(C(=O)OCC(=O)N(C)c2ccccc2)c1		inactive: -21.3%
CC(C)(C)N1C(=O)c2ccccc2NC(=O)C1C(=O)Nc1ccc(N2CCOCC2)cc1 (stereo not given)		inactive: -0.942%
O=C(NCCN1CCC(n2c(=O)[nH]c3ccccc32)CC1)c1ccc(Cl)cc1Cl	inconclusive [inhibitor, partial curve]	
CCC(=O)NCC(c1cccs1)N1CCOCC1 (stereo not given)		inconclusive: -32.2% [inhibitor]
O=[N+]([O-])c1cccc(CSc2nc3ccccc3[nH]2)c1	inconclusive [inhibitor, single point]	
COc1cc(C(F)(F)F)c(C(=O)N(C)c2ccc(Cl)cc2)cn1		inactive: -27.9%
Cc1[nH]n(C(N)=S)c(=O)c1N=Nc1cccc(C(F)(F)F)c1	inconclusive [inhibitor, single point]	

SMILES	Potency	activity change, negative = growth inhibition
O=C(Nc1cc(Cl)ccc1Cl)Nn1cnnc1		inactive: 14.7%
CCC1CCc2nc3sc(C(=O)Nc4ccc(C)cc4C)c(N)c3cc2C1 (stereo not given)	inconclusive [inhibitor, partial curve]	
CCCNC(=O)Cc1c(C)n(C(=O)c2ccc(Cl)cc2)c2ccc(OC)cc12	active: 20.6 µM	
CC(C)CNC(=S)NNC(=O)c1csc2c1CCC(C)C2 (stereo not given)	inconclusive [inhibitor, single point]	
O=C1N/C(=N\N=C\c2cccs2)SC1Cc1cccc(Cl)c1 (stereo not given)	active: 11.6 µM	
O=C(NCCc1csc(-c2cccc(F)c2)n1)c1ccccc1C(F)(F)F	inconclusive [inhibitor, single point]	
CCN(C(=O)CN1C(=O)COc2ccc(S(=O)(=O)N3CCOCC3)cc21)c1cccc(C)c1	inconclusive [inhibitor, single point]	
CC(=O)c1cccc(NC2c3ccccc3C(=O)N2Cc2ccc3c(c2)OCO3)c1 (stereo not given)	inconclusive [inhibitor, single point]	
CCCCC1=CC2=CC(=O)C(C)(OC(=O)CC)C(=O)C2=CN1c1cccc(C#N)c1 (stereo not given)	inconclusive [inhibitor, full curve]	
O=C(NCc1ccccc1Cl)C1CCCN(S(=O)(=O)c2cnc[nH]2)C1 (stereo not given)		inactive: 3.39%
CC1(c2nnc(-c3ccccc3)o2)CC(c2ccccc2)=NO1 (stereo not given)	inconclusive [inhibitor, partial curve]	
CCN(CC)C(=O)CC(c1ccc(N(C)C)cc1)c1c(OC)cc(OC)c2ccc(=O)oc12 (stereo not given)	inconclusive [inhibitor, single point]	
COC(=O)CCN1CCC(c2cc(-c3cccc(C(F)(F)F)c3)n[nH]2)CC1		inactive: -6.85%
COc1ccc(NC(=O)Cn2nnc(C(=O)NCc3ccc4c(c3)OCO4)c2N)c(OC)c1	inconclusive [inhibitor, single point]	
Cc1nonc1C(=O)N/N=C/c1ccc(O)c(O)c1	inconclusive [inhibitor, partial curve]	
O=c1ccc2cc(S(=O)(=O)N3CCN(c4ccccc4F)CC3)ccc2[nH]1	inconclusive [inhibitor, single point]	
O=C(COc1cc(Cl)c(Cl)cc1Cl)NCCN1CCOCC1	inconclusive [inhibitor, partial curve]	
Cc1ccc(OCC(O)Cn2c(=N)n(CCN3CCOCC3)c3ccccc32)cc1 (stereo not given)	inconclusive [inhibitor, single point]	
CCc1nn(-c2ccccc2)c2nc(-c3ccc(O)cc3)c3cc(OC)c(OC)cc3c12		inactive: 0.813%
Cc1ccc2c(c1)C1CC(C)(O2)N(c2cccc(C(=O)N3CCN(c4ccccn4)CC3)c2)C(=O)N1 (stereo not given)	inconclusive [inhibitor, single point]	
CCN(CC)C(=O)[C@H]1CC(CC(=O)NC/C=C(\C)CCC=C(C)C)C(=O)N2CCc3c([nH]c4ccccc34)[C@]12C (stereo not given in full)	active: 23.1 µM	
COC(=O)c1ccc(NC(=O)Cn2c(-c3nonc3N)nc3ccccc32)cc1	inconclusive [inhibitor, partial curve]	
